Measured values from publication PMC7454948.
No constants are given. Whether binding was seen depends on the method and setting. In cells and extracts the contact can be indirect. Some binding calls cover weakened binding; strength is not graded here. Where a sequence is shown, tags or fusion partners need not be part of it.

T1: Brn1-GFP (S. cerevisiae) (UniProt P38170)
T1 sequence: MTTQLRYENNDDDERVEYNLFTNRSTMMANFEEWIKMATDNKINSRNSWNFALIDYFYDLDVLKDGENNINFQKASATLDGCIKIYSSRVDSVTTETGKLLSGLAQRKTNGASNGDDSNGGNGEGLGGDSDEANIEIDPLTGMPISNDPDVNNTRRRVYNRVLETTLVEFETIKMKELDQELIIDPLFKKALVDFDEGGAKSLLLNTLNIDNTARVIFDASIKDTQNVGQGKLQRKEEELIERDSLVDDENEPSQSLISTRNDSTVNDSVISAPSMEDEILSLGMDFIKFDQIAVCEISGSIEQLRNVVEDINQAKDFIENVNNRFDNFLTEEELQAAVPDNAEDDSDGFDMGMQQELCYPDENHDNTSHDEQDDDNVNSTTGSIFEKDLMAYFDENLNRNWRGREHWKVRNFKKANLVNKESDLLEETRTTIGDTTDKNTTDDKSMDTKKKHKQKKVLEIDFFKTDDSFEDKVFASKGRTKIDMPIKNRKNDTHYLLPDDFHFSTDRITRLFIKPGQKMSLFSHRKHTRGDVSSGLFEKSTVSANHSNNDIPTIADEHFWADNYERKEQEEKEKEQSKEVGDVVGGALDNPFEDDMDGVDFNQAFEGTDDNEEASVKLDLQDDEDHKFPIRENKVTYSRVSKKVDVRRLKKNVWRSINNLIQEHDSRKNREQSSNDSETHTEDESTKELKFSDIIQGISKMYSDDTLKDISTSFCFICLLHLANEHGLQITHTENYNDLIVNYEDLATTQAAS

T2: Smc2-GFP (S. cerevisiae) (UniProt P38989)
T2 sequence: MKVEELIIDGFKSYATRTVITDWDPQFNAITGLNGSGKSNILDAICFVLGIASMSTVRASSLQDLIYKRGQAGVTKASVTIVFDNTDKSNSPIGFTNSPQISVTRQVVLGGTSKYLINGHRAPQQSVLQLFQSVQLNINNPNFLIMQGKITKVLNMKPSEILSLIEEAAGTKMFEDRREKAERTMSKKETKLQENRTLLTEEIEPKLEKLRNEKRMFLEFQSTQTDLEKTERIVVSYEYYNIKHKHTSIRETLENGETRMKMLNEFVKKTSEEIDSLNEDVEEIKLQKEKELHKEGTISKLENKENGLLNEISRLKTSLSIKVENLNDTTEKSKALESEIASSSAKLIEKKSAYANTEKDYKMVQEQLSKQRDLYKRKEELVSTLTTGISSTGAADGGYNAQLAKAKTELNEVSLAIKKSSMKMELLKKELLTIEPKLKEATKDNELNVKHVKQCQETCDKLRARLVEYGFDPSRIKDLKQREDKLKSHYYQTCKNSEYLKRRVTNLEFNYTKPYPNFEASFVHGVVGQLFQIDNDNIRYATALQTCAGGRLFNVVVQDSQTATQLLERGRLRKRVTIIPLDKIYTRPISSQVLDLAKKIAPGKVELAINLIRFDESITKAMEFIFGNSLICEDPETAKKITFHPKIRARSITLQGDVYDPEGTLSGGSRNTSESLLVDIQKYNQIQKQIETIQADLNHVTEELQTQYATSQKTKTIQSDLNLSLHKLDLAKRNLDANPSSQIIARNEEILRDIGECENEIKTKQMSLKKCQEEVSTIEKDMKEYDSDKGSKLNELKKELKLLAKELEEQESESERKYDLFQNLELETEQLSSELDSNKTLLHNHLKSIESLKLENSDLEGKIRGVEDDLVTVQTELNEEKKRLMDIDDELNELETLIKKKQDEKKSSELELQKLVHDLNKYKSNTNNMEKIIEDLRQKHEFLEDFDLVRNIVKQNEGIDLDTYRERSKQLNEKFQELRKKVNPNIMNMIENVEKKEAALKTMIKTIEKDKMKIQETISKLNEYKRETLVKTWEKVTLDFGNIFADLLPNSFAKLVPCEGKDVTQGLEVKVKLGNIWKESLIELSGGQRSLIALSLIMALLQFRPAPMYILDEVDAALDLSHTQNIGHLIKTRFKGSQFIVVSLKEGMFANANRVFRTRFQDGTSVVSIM

T3: GST-Sgo1 101–200 (S. cerevisiae) (UniProt Q08490)
T3 sequence: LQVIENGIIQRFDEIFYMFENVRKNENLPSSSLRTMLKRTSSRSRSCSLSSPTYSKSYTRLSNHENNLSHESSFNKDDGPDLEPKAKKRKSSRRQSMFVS

T4: GST-Sgo1 137–163 (S. cerevisiae)
T4 sequence: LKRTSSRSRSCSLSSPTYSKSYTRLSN

T5: GST-Sgo1 1–163 (S. cerevisiae) (UniProt Q08490)
T5 sequence: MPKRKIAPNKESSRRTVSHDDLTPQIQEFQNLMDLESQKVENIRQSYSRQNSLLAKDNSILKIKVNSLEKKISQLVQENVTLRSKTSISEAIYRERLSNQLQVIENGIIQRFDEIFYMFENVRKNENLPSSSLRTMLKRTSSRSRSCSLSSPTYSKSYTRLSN

T6: GST-Sgo1 N51I (S. cerevisiae) (UniProt Q08490)
T6 sequence: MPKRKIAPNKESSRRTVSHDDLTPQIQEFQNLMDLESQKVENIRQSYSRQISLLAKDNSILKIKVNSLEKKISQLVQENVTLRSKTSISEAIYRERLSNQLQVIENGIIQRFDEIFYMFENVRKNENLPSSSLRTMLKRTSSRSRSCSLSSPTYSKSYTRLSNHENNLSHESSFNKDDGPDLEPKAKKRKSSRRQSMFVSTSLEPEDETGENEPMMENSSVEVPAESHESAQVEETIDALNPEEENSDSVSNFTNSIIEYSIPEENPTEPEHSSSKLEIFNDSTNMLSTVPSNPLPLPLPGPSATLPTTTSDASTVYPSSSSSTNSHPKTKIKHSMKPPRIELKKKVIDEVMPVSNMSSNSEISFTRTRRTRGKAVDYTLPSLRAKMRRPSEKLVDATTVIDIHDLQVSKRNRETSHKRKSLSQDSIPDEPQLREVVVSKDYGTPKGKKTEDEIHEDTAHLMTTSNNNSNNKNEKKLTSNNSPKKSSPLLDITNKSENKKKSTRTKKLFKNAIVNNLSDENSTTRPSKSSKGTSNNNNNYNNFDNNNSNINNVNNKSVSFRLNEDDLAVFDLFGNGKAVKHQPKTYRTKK

T7: GST-Sgo1wt (full length Sgo1-GST) (S. cerevisiae) (UniProt Q08490)
T7 sequence: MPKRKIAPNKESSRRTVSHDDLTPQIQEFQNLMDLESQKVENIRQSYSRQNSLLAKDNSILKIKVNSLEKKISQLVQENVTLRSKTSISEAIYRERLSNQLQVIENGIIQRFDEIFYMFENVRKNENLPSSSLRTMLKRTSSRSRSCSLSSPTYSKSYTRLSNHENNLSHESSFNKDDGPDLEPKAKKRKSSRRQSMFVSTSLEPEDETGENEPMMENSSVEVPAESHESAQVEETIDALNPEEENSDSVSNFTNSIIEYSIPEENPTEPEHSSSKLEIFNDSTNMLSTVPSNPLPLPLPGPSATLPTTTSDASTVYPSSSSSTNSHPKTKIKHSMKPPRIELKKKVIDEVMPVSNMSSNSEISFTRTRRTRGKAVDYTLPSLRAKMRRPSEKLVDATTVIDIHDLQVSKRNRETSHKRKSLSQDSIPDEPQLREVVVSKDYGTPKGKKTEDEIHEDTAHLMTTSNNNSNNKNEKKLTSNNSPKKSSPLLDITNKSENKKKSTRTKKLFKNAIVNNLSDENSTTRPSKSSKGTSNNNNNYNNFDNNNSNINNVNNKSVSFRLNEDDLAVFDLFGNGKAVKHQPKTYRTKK


Assays:
Brn1-GFP (S. cerevisiae) = target: T1, Brn1-GFP (S. cerevisiae); assay: co-IP; GFP-Trap agarose beads, yeast lysates in native lysis buffer (20 mM HEPES pH 7.5, 0.5% Triton X-100, 200 mM NaCl), 2 hours at 4°C; Smc2-GFP or Brn1-GFP pulled down, Sgo1-TAP detected with PAP
Smc2-GFP (S. cerevisiae) = target: T2, Smc2-GFP (S. cerevisiae); assay: as above
[1] = target: T3, GST-Sgo1 101–200 (S. cerevisiae); assay: pull-down; GST-Sgo1 proteins (100 ug) on glutathione magnetic beads, rotated with yeast lysate 2 h at 4°C; eluates immunoblotted with anti-FLAG (Ycg1), anti-HA (Smc2), anti-MYC (Rts1); only the target purified
[2] = target: T4, GST-Sgo1 137–163 (S. cerevisiae); assay: as above
[3] = target: T5, GST-Sgo1 1–163 (S. cerevisiae); assay: as above
[4] = target: T6, GST-Sgo1 N51I (S. cerevisiae); assay: as above
[5] = target: T7, GST-Sgo1wt (full length Sgo1-GST) (S. cerevisiae); assay: as above

| binding (Brn1-GFP (S. cerevisiae)) | binding (Smc2-GFP (S. cerevisiae)) | binding [1] | binding [2] | binding [3] | binding [4] | binding [5] | Binder |
| --- | --- | --- | --- | --- | --- | --- | --- |
| no binding | no binding |  |  |  |  |  | Sgo1-13E (TAP-tagged, in yeast) (protein, UniProt Q08490 1-590) MPKRKIAPNKESSRRTVSHDDLTPQIQEFQNLMDLESQKVENIRQSYSRQNSLLAKDNSILKIKVNSLEKKISQLVQENVTLRSKTSISEAIYRERLSNQLQVIENGIIQRFDEIFYMFENVRKNENLPSSSLRTMLKREEERERECELEEPEYEKEYERLENHENNLSHESSFNKDDGPDLEPKAKKRKSSRRQSMFVSTSLEPEDETGENEPMMENSSVEVPAESHESAQVEETIDALNPEEENSDSVSNFTNSIIEYSIPEENPTEPEHSSSKLEIFNDSTNMLSTVPSNPLPLPLPGPSATLPTTTSDASTVYPSSSSSTNSHPKTKIKHSMKPPRIELKKKVIDEVMPVSNMSSNSEISFTRTRRTRGKAVDYTLPSLRAKMRRPSEKLVDATTVIDIHDLQVSKRNRETSHKRKSLSQDSIPDEPQLREVVVSKDYGTPKGKKTEDEIHEDTAHLMTTSNNNSNNKNEKKLTSNNSPKKSSPLLDITNKSENKKKSTRTKKLFKNAIVNNLSDENSTTRPSKSSKGTSNNNNNYNNFDNNNSNINNVNNKSVSFRLNEDDLAVFDLFGNGKAVKHQPKTYRTKK |
|  |  | no binding | no binding | binds | binds | binds | Ycg1-3FLAG (protein, UniProt Q06680 1-1035) MQDPDGIDINTKIFNSVAEVFQKAQGSYAGHRKHIAVLKKIQSKAVEQGYEDAFNFWFDKLVTKILPLKKNEIIGDRIVKLVAAFIASLERELILAKKQNYKLTNDEEGIFSRFVDQFIRHVLRGVESPDKNVRFRVLQLLAVIMDNIGEIDESLFNLLILSLNKRIYDREPTVRIQAVFCLTKFQDEEQTEHLTELSDNEENFEATRTLVASIQNDPSAEVRRAAMLNLINDNNTRPYILERARDVNIVNRRLVYSRILKSMGRKCFDDIEPHIFDQLIEWGLEDRELSVRNACKRLIAHDWLNALDGDLIELLEKLDVSRSSVCVKAIEALFQSRPDILSKIKFPESIWKDFTVEIAFLFRAIYLYCLDNNITEMLEENFPEASKLSEHLNHYILLRYHHNDISNDSQSHFDYNTLEFIIEQLSIAAERYDYSDEVGRRSMLTVVRNMLALTTLSEPLIKIGIRVMKSLSINEKDFVTMAIEIINDIRDDDIEKQEQEEKIKSKKINRRNETSVDEEDENGTHNDEVNEDEEDDNISSFHSAVENLVQGNGNVSESDIINNLPPEKEASSATIVLCLTRSSYMLELVNTPLTENILIASLMDTLITPAVRNTAPNIRELGVKNLGLCCLLDVKLAIDNMYILGMCVSKGNASLKYIALQVIVDIFSVHGNTVVDGEGKVDSISLHKIFYKVLKNNGLPECQVIAAEGLCKLFLADVFTDDDLFETLVLSYFSPINSSNEALVQAFAFCIPVYCFSHPAHQQRMSRTAADILLRLCVLWDDLQSSVIPEVDREAMLKPNIIFQQLLFWTDPRNLVNQTGSTKKDTVQLTFLIDVLKIYAQIEKKEIKKMIITNINAIFLSSEQDYSTLKELLEYSDDIAENDNLDNVSKNALDKLRNNLNSLIEEINERSETQTKDENNTANDQYSSILGNSFNKSSNDTIEHAADITDGNNTELTKTTVNISAVDNTTEQSNSRKRTRSEAEQIDTSKNLENMSIQDTSTVAKNVSFVLPDEKSDAMSIDEEDKDSESFSEVC |
